Results taken from PMC9677703.
These are yes or no findings as the source states them, for the method shown. In cells and extracts the contact can be indirect. Some binding calls cover weakened binding; strength is not graded here. Sequences can lack the tags named with a protein.

Chains of the proteins cited; added tags and fusions are not shown.
UniProt Q9NYF8: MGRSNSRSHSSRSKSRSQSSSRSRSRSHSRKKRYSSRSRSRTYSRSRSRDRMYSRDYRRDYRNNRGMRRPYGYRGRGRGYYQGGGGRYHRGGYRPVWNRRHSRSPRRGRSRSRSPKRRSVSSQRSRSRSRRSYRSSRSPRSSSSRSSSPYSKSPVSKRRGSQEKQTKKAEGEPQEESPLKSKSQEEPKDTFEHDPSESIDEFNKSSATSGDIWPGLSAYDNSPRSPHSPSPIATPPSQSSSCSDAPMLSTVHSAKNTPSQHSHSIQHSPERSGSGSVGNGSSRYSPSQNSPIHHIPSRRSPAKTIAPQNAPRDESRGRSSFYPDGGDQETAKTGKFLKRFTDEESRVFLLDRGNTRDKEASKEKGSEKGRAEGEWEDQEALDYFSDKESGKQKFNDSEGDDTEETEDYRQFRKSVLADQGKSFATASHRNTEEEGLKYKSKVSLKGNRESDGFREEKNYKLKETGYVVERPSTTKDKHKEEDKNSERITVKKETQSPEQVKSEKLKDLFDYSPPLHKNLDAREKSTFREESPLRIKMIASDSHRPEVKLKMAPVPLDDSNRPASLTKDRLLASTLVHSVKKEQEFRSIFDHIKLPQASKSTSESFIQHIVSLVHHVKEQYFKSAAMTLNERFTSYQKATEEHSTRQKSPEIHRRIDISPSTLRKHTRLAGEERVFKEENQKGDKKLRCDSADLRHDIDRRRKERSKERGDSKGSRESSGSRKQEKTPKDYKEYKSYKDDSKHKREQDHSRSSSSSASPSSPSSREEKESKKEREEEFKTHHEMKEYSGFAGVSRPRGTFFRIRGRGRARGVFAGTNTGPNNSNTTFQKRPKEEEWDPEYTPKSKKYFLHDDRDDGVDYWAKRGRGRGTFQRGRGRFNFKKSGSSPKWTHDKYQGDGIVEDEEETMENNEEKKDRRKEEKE

Target: T1, recombinant His-tagged FGF12 (UniProt P61328)
T1 sequence: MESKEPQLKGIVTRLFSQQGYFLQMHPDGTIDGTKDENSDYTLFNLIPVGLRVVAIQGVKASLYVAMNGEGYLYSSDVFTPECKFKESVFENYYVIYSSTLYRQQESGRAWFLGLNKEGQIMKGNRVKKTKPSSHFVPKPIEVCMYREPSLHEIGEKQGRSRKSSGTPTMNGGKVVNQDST
Assay: pull-down; recombinant FGF12-His or FGF12Δ-His bound to Ni Sepharose (1 h, 4 °C), incubated with U2OS cell lysate (0.15 M KCl, 40 mM Tris, 1% NP-40, 1 mM EDTA, pH 7.2) overnight at 4 °C; western blotting; also with nuclease-treated lysate (no effect); only the target purified

Bcl-2-associated transcription factor 1 (from UniProt Q9NYF8 1-920)
binding: binds
